8 molecules from US9751932B2, “Anti-big-endothelin-1 (big-ET-1) antibodies and uses thereof” (Regeneron Pharmaceuticals, Inc., priority 2012, dated 2017) can be followed below.

A word on the Kd: it is a measure of binding affinity in units of concentration. Higher therefore signals a looser complex.

First the molecules themselves.
T1: mouse big-ET-1 (SEQ ID NO:437) (Mus musculus, UniProt P22387)
T1 sequence (P22387 53-91 limits assumed): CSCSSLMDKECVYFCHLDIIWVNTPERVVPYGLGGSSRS

T2: human big-ET-1 (SEQ ID NO:434) (Homo sapiens, UniProt P05305)
T2 sequence (P05305 53-90 limits assumed): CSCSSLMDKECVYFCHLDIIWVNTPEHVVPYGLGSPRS

B1: H4H6316P: anti-big-ET-1 antibody, human IgG4 Fc; HCVR/LCVR SEQ ID NO: 114/122 (antibody, V domains shown)
VH: QVQLVESGGGVVQPGRSLRLSCEASGFTFSSYGMHWVRQAPGKGLEWVAVFWYDGSNKYYADSVKGRFTISRDNSKNTLYLQMNSLTAEDTAIYYCARAYDAFDIWGQGTMVTVSS
VL: [omitted - about 100 residues]
modifications: human IgG4 Fc
B2: H2M6495N: anti-big-ET-1 antibody, mouse IgG2 Fc; HCVR/LCVR SEQ ID NO: 66/74 (antibody, V domains shown)
VH: QVQLVESGGGVVQPGRSLRLSCAASGFTFRSYGMHWVRQAPGKGLEWVAVIWYDGSDKYYADSVKGRFTISRDNSKNTLYLQMNSLRAEDTAVYFCAKDEYKTRGGYFDYWGQGTLVTVSS
VL: [omitted - about 120 residues]
modifications: mouse IgG2 Fc
B3: H4H6328P: anti-big-ET-1 antibody, human IgG4 Fc; HCVR/LCVR SEQ ID NO: 178/186 (antibody, V domains shown)
VH: B2 VH with R30S, F95Y, K98R, E100G, K102G, T103S, G106N
VL: [omitted - about 100 residues]PTFGGGTKVEIK
modifications: human IgG4 Fc
B4: H4H6332P: anti-big-ET-1 antibody, human IgG4 Fc; HCVR/LCVR SEQ ID NO: 226/234 (antibody, V domains shown)
VH: EVQLVESGEGLVQPGGSLRLSCAASGFIFSSYAMSWVRQAPGKGLEWVSAISGSGVGTYYADSVKGRFTISRDNSKNTLYLQMNSLRAEDTAVYFCAKTLSGTHAFDIWGQGTMVTVSS
VL: [omitted - about 100 residues]TFGQGTKLEIK
modifications: human IgG4 Fc
B5: H4H6340P: anti-big-ET-1 antibody, human IgG4 Fc; HCVR/LCVR SEQ ID NO: 322/330 (antibody, V domains shown)
VH: EVQLVESGGGLVQPGGSLRLSCAASGFTFSSSAMSWVRQAPGKGLEWVSAISGSGVGTYYAASVKGRFTISRDNSKNILYLQMNDLRAEDTALYYCPKARTGTHAFDIWGQGTMVTVSS
VL: [omitted - about 100 residues]TFGPGTKVDIK
modifications: human IgG4 Fc
B6: H4H6347P: anti-big-ET-1 antibody, human IgG4 Fc; HCVR/LCVR SEQ ID NO: 370/378 (antibody, V domains shown)
VH: B5 VH with S31N, S32Y, I78T, D85S, L93V
VL: [omitted - about 100 residues]TFGPGTKVDIK
modifications: human IgG4 Fc
B7: H2M6486N: anti-big-ET-1 antibody, mouse IgG2 Fc; HCVR/LCVR SEQ ID NO: 2/10 (antibody, V domains shown)
VH: EVQLVESGGGLVKPGGSLRLSCAASGFTFSSYNMNWVRQAPGKGLEWVSSISSSSSYIYYADSVKGRFTISRDNAKNSLYLQMNSLRAEDTAVYYCARDNWNYSFDYWGQGTLVTVSS
VL: [omitted - about 100 residues]
modifications: mouse IgG2 Fc
B8: H4H6334P2: anti-big-ET-1 antibody, human IgG4 Fc; HCVR/LCVR SEQ ID NO: 258/266 (antibody, V domains shown)
VH: EVQLVESGGGLVKPGGSLRLSCAVSGFTFSIDWMIWVRQAPGTGLEWVGRIKRKTDGGTTDYAAPVKGRFTISRDDSKNTLYLQMNSLKTEDTAIYYCATGGFERWGQGTLVTVSS
VL: [omitted - about 100 residues]LTFGGGTKVEIK
modifications: human IgG4 Fc

Where a chain is given by its changes, count along the chain named.

For one assay, the target named is T1, mouse big-ET-1 (SEQ ID NO:437). Kind of assay: Surface plasmon resonance (Biacore) binding, mAb capture format, 37° C.
Conditions: not given
As for the experimental part: (§1) Measurements were conducted on a T200 Biacore instrument (Biacore Life Sciences division of GE Healthcare, Piscataway, N.J.). […] Different concentrations of small-ET-1 (SEQ ID NO:435), human big-ET-1 (SEQ ID NO:434) or mouse big-ET-1 (SEQ ID NO:437) were injected over the anti-big-ET-1 captured surfaces at a flow rate of 100 μl/min. Peptide binding was monitored for 3 min while dissociation of mAb-bound peptide was monitored for 4 min in HBST running buffer (0.01 M HEPES pH 7.4, 0.15 M NaCl, 3 mM EDTA, 0.005% v/v Surfactant P20). Kinetic association (ka) and dissociation (kd) rate constants were determined by processing and fitting the data to a 1:1 binding model using Scrubber 2.0 curve fitting software.
A general note: SPR reads the build-up and loss of mass on a sensor chip optically.
In the case of B1, the “binding to mouse big-ET-1 (in words)” value was “did not show any binding”.

B2: the “binding to mouse big-ET-1 (in words)” value was “did not show any binding”.

As to B3, the “binding to mouse big-ET-1 (in words)” value is listed as “did not show any binding”.

Still in this assay, the particulars now being: analyte mouse big-ET-1, mAb capture.
Consider B4, for which the ka was 2e+06 M/s and the kd was 0.196 s⁻¹.

Molecule B5 returned a ka of 1.3e+06 M/s and a kd of 0.0603 s⁻¹.

B6 came in with a ka of 3.1e+06 M/s and a kd of 0.0414 s⁻¹.

In turn, B7 gave a ka of 830000 M/s and a kd of 0.135 s⁻¹.

The same assay, now with this note: analyte mouse big-ET-1, mAb capture, KD=kd/ka.
On to B1, for which the Kd was greater than 1 µM.

Regarding B2, the Kd was greater than 1 µM.

On to B3, for which the Kd was greater than 1 µM.

The target of another assay is T2, human big-ET-1 (SEQ ID NO:434). Described as above.
Conditions: not given
As for the experimental part:
as §1
In the case of B1, the “binding to human big-ET-1 (in words)” value is “high affinity binding”.

As for B2, the “binding to human big-ET-1 (in words)” value is given as “high affinity binding”.

Turning to B3, the “binding to human big-ET-1 (in words)” value is reported as “high affinity binding”.

The assay is the same for the next values; noted with them: analyte human big-ET-1, mAb capture.
As for B1, the ka was found to be 28800 M/s and the kd was found to be 0.000428 s⁻¹.

In the case of B2, the ka was found to be 117000 M/s and the kd turned out to be 1e-06 s⁻¹.

The molecule B3 had a ka of 158000 M/s and a kd of 1e-06 s⁻¹.

Turning to B4, the ka was 1.45e+06 M/s and the kd was 0.0429 s⁻¹.

The molecule B5 came in with a ka of 2.3e+06 M/s and a kd of 0.0249 s⁻¹.

B6 showed a ka of 1.81e+06 M/s and a kd of 0.0239 s⁻¹.

On to B8, for which the ka was 155000 M/s and the kd came out at 0.0349 s⁻¹.

As for B7, the ka amounted to 380000 M/s and the kd was 0.0898 s⁻¹.
